Experimental data: the supplement of paper PMC11417369
± gives the standard deviation of the averaged measurements. Some of the results follow.

What follows are sequences tested on PfAP2-EXP AP2 domain (GST-tagged) (assay: gcPBM binding intensity (ln(normalized median fluorescence intensity)); higher = stronger DNA binding).
Procedure, shortened: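 Binding intensity is defined as the maximum Masliner-normalised natural-log median intensity across replicate spots for either probe orientation. It was measured on an Agilent 4 × 180k array of primer-extended double-stranded 36-bp intergenic genomic probes and negative controls, to which GST-tagged P. falciparum DNA-binding domains made in E. coli were applied for 1 h in 1× PBS with 1% milk, 0.2 mg/ml BSA, 0.5% salmon testes DNA and 0.03% Triton X-100. Detection was by Alexa488 anti-GST antibody and scanning at 488 nm.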

| Sequence | gcPBM binding intensity (ln) |
| --- | --- |
| TCATTTTATTATTCTACACACTTATCTATAATTACA [CACACA_site6168] | 8.74 ± 0.3 |
| ATTCTATATATGTGCACACAAAAGATATATATATAT [CACACA_site2124] | 9.93 ± 0.26 |
| TTACATGTACAAAAGTTGCACTTCATACACTTTTAT | 8.78 ± 0.33 |
| TCATTTCAATACACAAGTACGTATATGGTTATATTG [XGTACX_site6021] | 8.52 ± 0.37 |
| AATATAAAATAATGCACACATAAACAAAAAATCAAA [CACACA_site1371] | 8.79 ± 0.36 |
| TTTCCAAATTGTTGACGGACACTCACGAATAGTTAT [XGTACX_site5720] | 8.53 ± 0.42 |
| ACATGAAGATATTTTTGTCCGTACAAATTCATATGA [XGTACX_site1837] | 8.47 ± 0.33 |
| CATATGTATATGACTACACACAAGGGTGTACATATA [CACACA_site1164] | 8.48 ± 0.18 |
| AGTATATCAAAATACATACACACATTTGTATATACA [CACACA_site2697] | 8.46 ± 0.41 |
| GTCCTCATCCACTATGCACACAAAAAAGAAATACAC [CACACA_site9131] | 9.04 ± 0.29 |
| TTTTTTTTTTTTTTTTGTACACAAATTTATTGTCTA [XGTACX_site2680] | 8.32 ± 0.35 |
| TACGTTATGTTGAATAGTACAATTTGGTGAACAGGT [XGTACX_site1729] | 8.97 ± 0.39 |
| ATATATATAATATGTAGTACTTTCCTCTCAAATCAT [XGTACX_site7766] | 8.66 ± 0.057 |
| ATCAAAAATATAAAAAATATAAACAATTTATTATCA [CACACA_negctrl_site768] | 8.12 ± 0.41 |
| TTTACATCCAAAAACTGTACACTTATTTTATAATTC [XGTACX_site5332] | 8.6 ± 0.36 |
| AATAAGTAACAAAATACACACATATATATAATTATA [CACACA_site1837] | 8.63 ± 0.35 |
| GAATCATATTTAAACACACATACATATATATATATA [CACACA_site3352] | 10 ± 0.34 |
| TTTTTACTATAATTAAAATTAACAAAAGAAAATGAT [GTGCAC_negctrl_site52] | 8.4 ± 0.35 |
| AAAAAATACAAGAAATGTACTCAAGCATATATTAAT [XGTACX_site3325] | 8.7 ± 0.27 |
| TTCATTATTATTAACATACACACGTGTTATATACAC [CACACA_site4112] | 8.66 ± 0.41 |
| TTCATTTTTTAAGCATCACACACGAAAGAACAAAGT [CACACA_site1122] | 9 ± 0.52 |
| TTTAATAATATAATGTGTACTTAAAAATTTATATAT [XGTACX_site5821] | 8.29 ± 0.21 |
| TCATAAATTAATAATACATGCATAATATTAAAATGT [TGCATGCA_site5] | 8.83 ± 0.3 |
| AAAAATATATAAGAGAGTACATAAAATAAATTAATT [XGTACX_site1534] | 8.61 ± 0.41 |
| AAATAATATATGAATGCACACAGTAAAAATTAAAGA [CACACA_site2252] | 8.94 ± 0.35 |
